The other results are listed elsewhere or left out. Sequences were assembled here from the parent chain. Inactive controls read about 0.05.
B1: TEV protease; numbered along this chain (parent)
chain: MGESLFKGPRDYNPISSSICHLTNESDGHTTSLYGIGFGPFIITNKHLFRRNNGTLVVQSLHGVFKVKDTTTLQQHLVDGRDMIIIRMPKDFPPFPQKLKFREPQREERICLVTTNFQTKSMSSMVSDTSCTFPSGDGIFWKHWIQTKDGQCGSPLVSTRDGFIVGIHSASNFTNTNNYFTSVPKNFMELLTNQEAQQWVSGWRLNADSVLWGGHKVFMVKPEEPFQPVKEATQL

Variants of: B1
Assay: raw area under fraction-flipped curve 0-4 h after induction (AUC4h, not background-subtracted), DNA-recorder readout of cleavage of the substrate (dimensionless); higher = more cleavage of the substrate by the protease variant
Settings: temperature: 34 °C; time window: 0-4 h after rhamnose induction
Experimental: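 In vivo DNA recorder in E. coli TOP10(DE3) ΔrhaA at 34 °C. Each TEVp single-site mutant (parent TEVp 0) is paired with a single-site variant of the 7-mer TEVs (canonical ENLYFQ|S). The substrate sits between flexible linkers in a Bxb1-sfGFP-TEVs-SsrA fusion, so cleavage stabilises Bxb1 and speeds flipping of a recombination array, read by NGS. The value is the raw area under the fraction-flipped curve over 0-4 h after rhamnose induction (AUC4h), with ≥20 reads per time point. It is not background-subtracted; inactive controls average about 0.047.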
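Also: Bxb1 expression induced with 0.2% (w/v) L-rhamnose at OD600 near 0.5, cultures sampled hourly, flipped fraction per protease–substrate barcode pair counted by paired-end Illumina sequencing.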

| Variant | area with substrate ENLYFAS | area with substrate ENLYFCS | area with substrate ENLYFES | area with substrate ENLYFFS | area with substrate ENLYFGS | area with substrate ENLYFIS | area with substrate ENLYFKS | area with substrate ENLYFMS | area with substrate ENLYFNS | area with substrate ENLYFPS | area with substrate ENLYFRS | area with substrate ENLYFSS | area with substrate ENLYFTS | area with substrate ENLYFWS | area with substrate ENLYFYS | area with substrate ENLYFHS | area with substrate ENLYFLS | area with substrate ENLYFVS | area with substrate ENLYFDS |
| --- | --- | --- | --- | --- | --- | --- | --- | --- | --- | --- | --- | --- | --- | --- | --- | --- | --- | --- | --- |
| MGESLFKGPRDYNPISSSICHLTNESDGHTTSLYGIGFGPFIITNKHLFRRNNGTLVVQSLHGVFKVKDTTTLQQHLVDGRDMIIIRMPKDFPPFPQKLKFREPQREERHCLVTTNFQTKSMSSMVSDTSCTFPSGDGIFWKHWIQTKDGQCGSPLVSTRDGFIVGIHSASNFTNTNNYFTSVPKNFMELLTNQEAQQWVSGWRLNADSVLWGGHKVFMVKPEEPFQPVKEATQL [I110H] | 0.059 | 0.0492 | 0.0414 | 0.0648 | 0.0777 | 0.0481 | 0.0465 | 0.0528 | 0.0486 | 0.0479 | 0.0602 | 0.0571 | 0.0547 | 0.0466 | 0.0389 | – | – | – | – |
| MGESLFKGPRDYNPISSSICHLTNESDGHTTSLYGIGFGPFIITNKHLFRRNNGTLVVQSLHGVFKVKDTTTLQQHLVDGRDMIIIRMPKDFPPFPQKLKFREPQREERIKLVTTNFQTKSMSSMVSDTSCTFPSGDGIFWKHWIQTKDGQCGSPLVSTRDGFIVGIHSASNFTNTNNYFTSVPKNFMELLTNQEAQQWVSGWRLNADSVLWGGHKVFMVKPEEPFQPVKEATQL [C111K] | 0.0591 | 0.0606 | 0.0673 | 0.0683 | – | 0.0629 | 0.0499 | 0.0826 | – | 0.0624 | – | 0.0575 | – | – | 0.0836 | 0.068 | 0.0561 | 0.0478 | – |
| MGESLFKGPRDYNPISSSICHLTNESDGHTTSLYGIGFGPFIITNKHLFRRNNGTLVVQSLHGVFKVKDTTTLQQHLVDGRDMIIIRMPKDFPPFPQKLKFREPQREERICLVMTNFQTKSMSSMVSDTSCTFPSGDGIFWKHWIQTKDGQCGSPLVSTRDGFIVGIHSASNFTNTNNYFTSVPKNFMELLTNQEAQQWVSGWRLNADSVLWGGHKVFMVKPEEPFQPVKEATQL [T114M] | 0.0726 | – | 0.0874 | 0.0655 | – | 0.0701 | – | 0.0563 | 0.0715 | 0.0634 | 0.0389 | – | 0.0608 | 0.0554 | – | – | – | 0.0399 | 0.0517 |
| MGESLFKGPRDYNPISSSICHLTNESDGHTTSLYGIGFGPFIITNKHLFRRNNGTLVVQSLHGVFKVKDTTTLQQHLVDGRDMIIIRMPKDFPPFPQKLKFREYQREERICLVTTNFQTKSMSSMVSDTSCTFPSGDGIFWKHWIQTKDGQCGSPLVSTRDGFIVGIHSASNFTNTNNYFTSVPKNFMELLTNQEAQQWVSGWRLNADSVLWGGHKVFMVKPEEPFQPVKEATQL [P104Y] | 0.0529 | 0.0495 | – | 0.0686 | 0.0578 | 0.0502 | 0.0478 | 0.0576 | – | 0.0398 | 0.037 | 0.0498 | – | 0.0517 | 0.0436 | 0.0589 | 0.0262 | – | – |
| MGESLFKGPRDYNPISSSICHLTNESDGHTTSLYGIGFGPFIITNKHLFRRNNGTLVVQSLHGVFKVKDTTTLQQHLVDGRDMIIIRMPKDFPPFPQKLKFREPKREERICLVTTNFQTKSMSSMVSDTSCTFPSGDGIFWKHWIQTKDGQCGSPLVSTRDGFIVGIHSASNFTNTNNYFTSVPKNFMELLTNQEAQQWVSGWRLNADSVLWGGHKVFMVKPEEPFQPVKEATQL [Q105K] | 0.0617 | 0.0577 | 0.0621 | 0.0659 | 0.0727 | 0.057 | 0.0679 | 0.0736 | 0.072 | 0.0609 | 0.037 | 0.0662 | 0.06 | 0.0681 | 0.0571 | 0.0521 | 0.062 | – | 0.0557 |
| MGESLFKGPRDYNPISSSICHLTNESDGHTTSLYGIGFGPFIITNKHLFRRNNGTLVVQSLHGVFKVKDTTTLQQHLVDGRDMIIIRMPKDFPPFPQKLKFREPNREERICLVTTNFQTKSMSSMVSDTSCTFPSGDGIFWKHWIQTKDGQCGSPLVSTRDGFIVGIHSASNFTNTNNYFTSVPKNFMELLTNQEAQQWVSGWRLNADSVLWGGHKVFMVKPEEPFQPVKEATQL [Q105N] | 0.0948 | 0.0562 | 0.0617 | 0.0673 | 0.0462 | 0.0575 | 0.0623 | 0.0633 | 0.0604 | 0.0675 | 0.0538 | 0.0685 | 0.0559 | 0.0655 | 0.0551 | 0.068 | – | 0.0594 | 0.0658 |
| MGESLFKGPRDYNPISSSICHLTNESDGHTTSLYGIGFGPFIITNKHLFRRNNGTLVVQSLHGVFKVKDTTTLQQHLVDGRDMIIIRMPKDFPPFPQKLKFREPQREERICLVTTAFQTKSMSSMVSDTSCTFPSGDGIFWKHWIQTKDGQCGSPLVSTRDGFIVGIHSASNFTNTNNYFTSVPKNFMELLTNQEAQQWVSGWRLNADSVLWGGHKVFMVKPEEPFQPVKEATQL [N116A] | 0.0548 | 0.0408 | 0.0493 | 0.0726 | 0.0551 | 0.0547 | – | 0.076 | 0.0328 | 0.0541 | – | – | – | 0.0609 | 0.0687 | 0.0617 | 0.0548 | 0.0636 | 0.0745 |
| MGESLFKGPRDYNPISSSICHLTNESDGHTTSLYGIGFGPFIITNKHLFRRNNGTLVVQSLHGVFKVKDTTTLQQHLVDGRDMIIIRMPKDFPPFPQKLKFRKPQREERICLVTTNFQTKSMSSMVSDTSCTFPSGDGIFWKHWIQTKDGQCGSPLVSTRDGFIVGIHSASNFTNTNNYFTSVPKNFMELLTNQEAQQWVSGWRLNADSVLWGGHKVFMVKPEEPFQPVKEATQL [E103K] | 0.0687 | 0.0577 | 0.0535 | 0.0636 | 0.06 | 0.0483 | 0.0652 | 0.0723 | – | – | – | 0.0592 | 0.0685 | – | – | 0.0554 | – | – | – |
| MGESLFKGPRDYNPISSSICHLTNESDGHTTSLYGIGFGPFIITNKHLFRRNNGTLVVQSLHGVFKVKDTTTLQQHLVDGRDMIIIRMPKDFPPFPQKLKFRYPQREERICLVTTNFQTKSMSSMVSDTSCTFPSGDGIFWKHWIQTKDGQCGSPLVSTRDGFIVGIHSASNFTNTNNYFTSVPKNFMELLTNQEAQQWVSGWRLNADSVLWGGHKVFMVKPEEPFQPVKEATQL [E103Y] | 0.0494 | 0.0569 | 0.0553 | – | – | 0.0548 | – | – | – | 0.0823 | – | – | – | 0.0391 | – | 0.0469 | – | – | – |
